The text below walks through data of PMC10516938, “Conformational dynamics of cohesin/Scc2 loading complex are regulated by Smc3 acetylation and ATP binding” (Nature Communications, 2023).

Results are given in words; binding and its absence hold for the method and conditions named. Binding seen in cells or lysates may run through a third protein. Some results given as binding are weak or reduced against the parent protein; the word gives no strength.

Assay [1] concerns the target T1, Smc3 K1004C (S. cerevisiae) (UniProt P47037).
T1 sequence: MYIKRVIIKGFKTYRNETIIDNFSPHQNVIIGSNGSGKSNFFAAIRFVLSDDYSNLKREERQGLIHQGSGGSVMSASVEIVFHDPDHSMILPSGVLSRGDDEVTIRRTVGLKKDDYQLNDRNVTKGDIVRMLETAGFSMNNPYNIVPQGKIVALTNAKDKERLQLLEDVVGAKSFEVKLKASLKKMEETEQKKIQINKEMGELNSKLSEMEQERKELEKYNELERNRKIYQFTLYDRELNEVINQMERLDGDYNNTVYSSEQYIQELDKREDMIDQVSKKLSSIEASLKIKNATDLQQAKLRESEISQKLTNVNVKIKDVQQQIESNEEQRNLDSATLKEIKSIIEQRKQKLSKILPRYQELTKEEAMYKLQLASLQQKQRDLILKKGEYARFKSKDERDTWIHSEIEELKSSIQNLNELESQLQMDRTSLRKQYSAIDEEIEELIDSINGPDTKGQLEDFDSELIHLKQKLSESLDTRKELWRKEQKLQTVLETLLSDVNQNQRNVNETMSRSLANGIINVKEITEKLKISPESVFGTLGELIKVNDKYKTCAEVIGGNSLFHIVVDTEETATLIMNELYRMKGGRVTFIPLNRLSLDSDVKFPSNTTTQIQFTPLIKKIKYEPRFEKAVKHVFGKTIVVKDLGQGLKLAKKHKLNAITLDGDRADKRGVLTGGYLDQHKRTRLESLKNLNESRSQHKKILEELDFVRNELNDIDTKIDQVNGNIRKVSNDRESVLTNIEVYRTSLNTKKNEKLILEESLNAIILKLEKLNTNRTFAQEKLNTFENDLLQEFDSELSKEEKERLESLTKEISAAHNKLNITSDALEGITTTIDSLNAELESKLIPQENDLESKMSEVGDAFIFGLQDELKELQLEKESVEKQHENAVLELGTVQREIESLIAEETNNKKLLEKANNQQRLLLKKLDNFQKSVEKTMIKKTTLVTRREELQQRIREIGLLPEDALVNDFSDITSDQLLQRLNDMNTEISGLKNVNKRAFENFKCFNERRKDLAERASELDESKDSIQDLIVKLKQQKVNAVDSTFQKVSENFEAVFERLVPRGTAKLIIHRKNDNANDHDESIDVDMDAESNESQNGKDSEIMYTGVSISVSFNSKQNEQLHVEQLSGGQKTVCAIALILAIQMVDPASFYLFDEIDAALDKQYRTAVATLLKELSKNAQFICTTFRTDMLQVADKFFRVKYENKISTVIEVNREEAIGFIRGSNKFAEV
Nature of the assay: cross-linking; in vivo BMOE cross-link of cysteine pairs in exponentially grown yeast cells (on ice, 6 min); Scc1-PK immunoprecipitated, western blot. A general note: A western blot detects proteins with antibodies after separation by electrophoresis.

Assay [2] addresses T1, Smc3 K1004C (S. cerevisiae). Put plainly: cross-linking; in vivo BMOE cross-link of cysteine pairs in yeast cells arrested in late G1 by non-degradable Sic1(9m); Scc1-PK immunoprecipitated, western blot, band intensities quantified.

B1: Scc2 D369C (natural protein, S. cerevisiae, UniProt Q04002 1-1493, looked up)
chain: MSYPGKDKNIPGRIIEALEDLPLSYLVPKDGLAALVNAPMRVSLPFDKTIFTSADDGRDVNINVLGTANSTTSSIKNEAEKERLVFKRPSNFTSSANSVDYVPTNFLEGLSPLAQSVLSTHKGLNDSINIEKKSEIVSRPEAKHKLESVTSNAGNLSFNDNSSNKKTKTSTGVTMTQANLAEQYLNDLKNILDIVGFDQNSAEIGNIEYWLQLPNKKFVLTTNCLTKLQMTIKNITDNPQLSNSIEITWLLRLLDVMVCNIKFSKSSLKMGLDDSMLRYIALLSTIVLFNIFLLGKNDSNLHRESYIMEPVNFLSDLIESLKILTIEYGSLKIEFDTFQEALELLPKYIRNGPFLDDNVTAKLVYIFSCLLMNNDIEATTNIQFQSFWDNVKRISSDILVSLFGSFDQQRGFIIEELLSHIEKLPTKRIQKKLRKVGNQNIYITDFTFTLMSMLENINCYSFCNQMKDIAPENIDLLKNEYKKQEEFLFNIVEHINDTILERFFKNPSALRYVIDNFVQDLLLLISSPQWPVTEKILSSLLKRLLSVYSPSMQVSANIETICLQLIGNIGSTIFDIKCSTRDHEDNNLIKMINYPETLPHFFKSFEECIAYNETIKCRRSATRFLWNLRLGTILILEEYTKDAKEQIITVDNELKKILEQIKDGGLGPELENREADFSTIKLDYFSILHAFELLNLYDPYLKLILSLLAKDKIKLRSTAIKCLSMLASKDKVILSNPMVKETIHRRLNDSSASVKDAILDLVSINSSYFEFYQQINNNYNDDSIMVRKHVLRINEKMYDETNDIVTKVYVIARILMKIEDEEDNIIDMARLILLNRWILKVHEVLDQPEKLKEISSSVLLVMSRVAIMNEKCSQLFDLFLNFYLLNKEAHSKEAYDKITHVLTILTDFLVQKIVELNSDDTNEKNSIVDKQNFLNLLAKFADSTVSFLTKDHITALYPYMVSDEKSDFHYYILQVFRCTFEKLANFKQKFLYDLETTLLSRLPKMNVREIDEAMPLIWSVATHRHDTARVAKACSSCLSHLHPYINKANNEEAAIVVDGKLQRLIYLSTGFARFCFPKPSNDKIAFLQEGETLYEHITKCLLVLSKDKITHVIRRVAVKNLTKLCGNHPKLFNSRHVLHLLDKEFQSDQLDIKLVILESLYDLFLLEERKSVRNTGVNSTLSSNSILKKKLLKTNRVEFANDGVCSALATRFLDNILQLCLLRDLKNSLVAIRLLKLILKFGYTNPSHSIPTVIALFASTSQYIRHVAYELLEDLFEKYETLVFSSLSRGVTKAIHYSIHTDEKYYYKHDHFLSLLEKLCGTGKKNGPKFFKVLKRIMQSYLDDITDLTSTNSSVQKSIFVLCTNISNITFVSQYDLVSLLKTIDLTTDRLKEVIMDEIGDNVSSLSVSEEKLSGIILIQLSLQDLGTYLLHLYGLRDDVLLLDIVEESELKNKQLPAKKPDISKFSAQLENIEQYSSNGKLLTYFRKHVKDT
notes: Scc2, S. cerevisiae; source: S. cerevisiae W303, in vivo, whole-cell extract
As for B1, the binding entry in assay [1] and in assay [2] was “binds” throughout.
